Results on 14 molecules are retold here after paper PMC9414507, “Drug Repurposing Based on Protozoan Proteome: In Vitro Evaluation of In Silico Screened Compounds against Toxoplasma gondii” (Pharmaceutics, 2022).

SMILES strings stand for the structures.

Experiment [1] deals with T. gondii tachyzoites. Kind of experiment: microbe, parasite or virus in culture. As to conditions: Toxoplasma gondii, 72 h, read-out: EC50 (Half Effective Concentration against T. gondii tachyzoites).
The test system of experiment [2] is T. gondii tachyzoites. As to conditions: for anti-T. gondii activity (range in words): in vitro; for SI (Selectivity index): CC50 HFF cells/EC50 T. gondii ratio.

For the molecule `CC(=O)O[C@H]1C[C@@]2(C)[C@@H](C[C@@H](O)[C@H]3[C@@]4(C)CC[C@@H](O)[C@@H](C)[C@@H]4CC[C@@]32C)/C1=C(\CCC=C(C)C)C(=O)O` [Fusidic acid], the EC50 with T. gondii tachyzoites [1] was determined as 16.7 µM. The “anti-T. gondii activity (range in words)” value with T. gondii tachyzoites [2] was “micromolar range”.

`COc1cccc2c1C(=O)c1c(O)c3c(c(O)c1C2=O)C[C@@](O)(C(=O)CO)C[C@@H]3O[C@H]1C[C@H](N)[C@H](O)[C@H](C)O1` [Doxorubicin]: the EC50 with T. gondii tachyzoites [1] stood at 2.39 µM. Further, the “anti-T. gondii activity (range in words)” value in the experiment on T. gondii tachyzoites [2] was “micromolar range”.

For `CCCC(CCC)C(=O)O` [Valproic acid], the EC50 in the experiment on T. gondii tachyzoites [1] came to 99.6 µM. Besides, the “anti-T. gondii activity (range in words)” value in the experiment with T. gondii tachyzoites [2] was “micromolar range”.

As to `C[C@H]1COc2c(N3CCN(C)CC3)c(F)cc3c(=O)c(C(=O)O)cn1c23` [Levofloxacin], in the experiment on T. gondii tachyzoites [1], the EC50 was found to be 70.6 µM. For the same molecule, the “anti-T. gondii activity (range in words)” value with T. gondii tachyzoites [2] was “micromolar range”.

Consider `C=CCNc1nc(NCC=C)nc(N2CCN(C(c3ccc(F)cc3)c3ccc(F)cc3)CC2)n1` [Almitrine], for which the EC50 in the experiment on T. gondii tachyzoites [1] came out at 0.424 µM. Besides, in the experiment with T. gondii tachyzoites [2], the “SI (Selectivity index)” value was above 47 and the “anti-T. gondii activity (range in words)” value is given as “nanomolar range”.

As to `C[C@H]1O[C@@H](O[C@H]2[C@@H](O)C[C@H](O[C@H]3[C@@H](O)C[C@H](O[C@H]4CC[C@@]5(C)[C@H](CC[C@@H]6[C@@H]5C[C@@H](O)[C@]5(C)[C@@H](C7=CC(=O)OC7)CC[C@]65O)C4)O[C@@H]3C)O[C@@H]2C)C[C@H](O)[C@@H]1O` [Digoxin], the EC50 in the experiment with T. gondii tachyzoites [1] came out at 42.6 µM. Besides, the “anti-T. gondii activity (range in words)” value with T. gondii tachyzoites [2] is “micromolar range”.

`CCc1nc(N)nc(N)c1-c1ccc(Cl)cc1` [Pyrimethamine]: the EC50 with T. gondii tachyzoites [1] worked out at 0.121 µM.

Regarding `NC(=O)c1ncn([C@@H]2O[C@H](CO)[C@@H](O)[C@H]2O)n1` [Ribavirin], the EC50 in the experiment with T. gondii tachyzoites [1] worked out at 83.3 µM. Besides, the “anti-T. gondii activity (range in words)” value in the experiment on T. gondii tachyzoites [2] is “micromolar range”.

On to `CC(C)C[C@H](NC(=O)[C@H](Cc1ccccc1)NC(=O)c1cnccn1)B(O)O` [Bortezomib], for which the EC50 in the experiment with T. gondii tachyzoites [1] stood at 0.223 µM. Also, in the experiment with T. gondii tachyzoites [2], the “SI (Selectivity index)” value stood at 0.35 and the “anti-T. gondii activity (range in words)” value is on record as “nanomolar range”.

As to `CCn1cc(C(=O)O)c(=O)c2cc(F)c(N3CCNC(C)C3)c(F)c21` (stereo not drawn) [Lomefloxacin], in the experiment on T. gondii tachyzoites [1], the EC50 was determined as 7.32 µM. In addition, the “anti-T. gondii activity (range in words)” value in the experiment with T. gondii tachyzoites [2] is listed as “micromolar range”.

For `Nc1nc(F)nc2c1ncn2[C@@H]1O[C@H](CO)[C@@H](O)[C@@H]1O` [Fludarabine], the EC50 in the experiment on T. gondii tachyzoites [1] is 0.75 µM. Further, in the experiment on T. gondii tachyzoites [2], the “SI (Selectivity index)” value came to 2.85 and the “anti-T. gondii activity (range in words)” value is recorded as “nanomolar range”.

Take `C[C@H]1O[C@@H](O[C@H]2[C@@H](O)C[C@H](O[C@H]3[C@@H](O)C[C@H](O[C@H]4CC[C@@]5(C)[C@H](CC[C@@H]6[C@@H]5CC[C@]5(C)[C@@H](C7=CC(=O)OC7)CC[C@]65O)C4)O[C@@H]3C)O[C@@H]2C)C[C@H](O)[C@@H]1O` [Digitoxin]: the EC50 with T. gondii tachyzoites [1] was determined as 5.66 µM. Further, the “anti-T. gondii activity (range in words)” value with T. gondii tachyzoites [2] is given as “micromolar range”.

With `COc1cc(Cc2cnc(N)nc2N)cc(OC)c1OC` [Trimethoprim], in the experiment on T. gondii tachyzoites [1], the EC50 turned out to be 7.36 µM. Further, the “anti-T. gondii activity (range in words)” value in the experiment with T. gondii tachyzoites [2] is recorded as “micromolar range”.

`COc1c(C)c2c(c(O)c1C/C=C(\C)CCC(=O)O)C(=O)OC2` [Mycophenolic acid]: the EC50 in the experiment on T. gondii tachyzoites [1] stood at 8.06 µM. Besides, in the experiment with T. gondii tachyzoites [2], the “anti-T. gondii activity (range in words)” value is given as “micromolar range”.
